Test results taken from PubChem BioAssay AID504332 (National Center for Advancing Translational Sciences (NCATS), 2011).
About 31,000 (8.9%) of roughly 350,000 compounds were called active. The inconclusive results got no clear call from the source; some entries with a clear call stand among them for comparison. Calls follow the shape of the dose curve; as a rule, active = well fitted inhibition curve with a large enough effect; inconclusive = small, poorly fitted or top-dose-only effect; inactive = no such curve, though single readings can be large or run the other way. Potencies of inconclusive entries are doubtful fits and often do not repeat.

What follows are compounds tested against Histone-lysine N-methyltransferase EHMT2 (Homo sapiens) (UniProt Q96KQ7) (assay: qHTS Assay for Inhibitors of Histone Lysine Methyltransferase G9a). Conditions: G9a H3K9 monomethylation, AlphaScreen, 2 h; activity, negative = inhibition: at 59 µM (top of the series) unless noted.
Summary of the method: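 G9a (20 nM) preincubated 15 min RT with compounds, then 500 nM biotinylated H3K9 peptide and 20 uM SAM added; 2 h RT reaction. Monomethyl-H3K9 product detected by AlphaScreen with anti-H3K9me1 antibody, streptavidin donor and anti-rabbit IgG acceptor beads.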
% is scaled to controls: 0 for no effect and ±100 for the full control effect; potency is read from the fitted curve at half-maximal effect; tags tell the direction and shape of the fitted curve.
Also: nearly all actives have a fitted effect of over 75% in size.

Chain of UniProt Q96KQ7 (Q96KQ7 whole entry, looked up): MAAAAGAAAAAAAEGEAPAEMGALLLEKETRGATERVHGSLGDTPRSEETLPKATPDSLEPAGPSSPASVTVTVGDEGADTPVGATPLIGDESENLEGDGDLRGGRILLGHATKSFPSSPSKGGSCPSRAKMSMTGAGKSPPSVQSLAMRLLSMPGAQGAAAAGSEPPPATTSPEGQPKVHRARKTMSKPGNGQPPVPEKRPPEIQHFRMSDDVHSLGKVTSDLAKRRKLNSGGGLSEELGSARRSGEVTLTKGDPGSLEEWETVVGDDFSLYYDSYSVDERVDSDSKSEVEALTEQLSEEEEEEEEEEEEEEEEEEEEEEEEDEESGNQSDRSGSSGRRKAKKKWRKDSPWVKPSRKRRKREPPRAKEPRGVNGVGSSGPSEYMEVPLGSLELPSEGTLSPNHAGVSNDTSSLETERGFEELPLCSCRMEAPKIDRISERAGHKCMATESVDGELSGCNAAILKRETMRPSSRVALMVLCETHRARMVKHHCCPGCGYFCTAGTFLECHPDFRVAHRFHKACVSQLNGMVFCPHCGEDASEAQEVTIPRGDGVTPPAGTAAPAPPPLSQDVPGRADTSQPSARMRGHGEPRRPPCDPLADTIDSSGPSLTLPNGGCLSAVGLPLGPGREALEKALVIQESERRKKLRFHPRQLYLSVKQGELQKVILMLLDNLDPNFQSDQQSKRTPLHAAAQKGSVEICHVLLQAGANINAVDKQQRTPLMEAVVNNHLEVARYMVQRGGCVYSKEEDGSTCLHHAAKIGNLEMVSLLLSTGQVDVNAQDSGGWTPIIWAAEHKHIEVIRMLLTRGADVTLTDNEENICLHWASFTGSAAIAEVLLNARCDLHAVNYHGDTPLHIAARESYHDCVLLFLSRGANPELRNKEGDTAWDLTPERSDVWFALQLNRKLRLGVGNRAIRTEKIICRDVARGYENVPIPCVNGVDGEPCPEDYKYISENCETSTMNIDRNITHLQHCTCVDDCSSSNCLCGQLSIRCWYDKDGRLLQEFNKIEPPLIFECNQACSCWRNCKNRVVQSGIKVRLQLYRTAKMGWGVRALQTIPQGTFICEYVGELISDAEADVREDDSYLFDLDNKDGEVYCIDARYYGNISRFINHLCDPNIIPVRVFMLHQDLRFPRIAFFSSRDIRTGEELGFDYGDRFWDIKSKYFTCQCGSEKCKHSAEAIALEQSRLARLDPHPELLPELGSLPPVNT

Row | SMILES | activity, negative = inhibition | Potency
1 | CC(=O)c1ccccc1-c1csc2ncnc(Sc3nnnn3C)c12 | inconclusive: -70% [inhibitor] [at 2.33 µM] | 
2 | Cc1[nH][nH]c(=O)c1N=Nc1ccccc1C#N |  | active: 44.7 µM
3 | O=C1/C(=C/c2cccnc2)SC(=S)N1C1CCS(=O)(=O)C1 (stereo not given) |  | inconclusive: 39.8 µM [inhibitor, single point]
4 | Cc1c(O)ccc(C(=O)CN2CCN(Cc3ccc4c(c3)OCO4)CC2)c1O |  | inconclusive: 39.8 µM [inhibitor, single point]
5 | COc1ccccc1NC(=O)Nc1nc(CC(=O)N2CCN(c3ccccc3)CC2)cs1 |  | inconclusive: 56.2 µM [inhibitor, partial curve, poor fit]
6 | O=C(O)c1cccc(NC(=S)NC(=O)C(c2ccccc2)c2ccccc2)c1 | inactive: -8.49% [at 102 µM] | 
7 | CC(=O)N1CCN(S(=O)(=O)c2cccc(C(=O)Nc3nc4ccccc4[nH]3)c2)CC1 |  | inconclusive: 0.355 µM [inhibitor, partial curve, poor fit]
8 | O=[N+]([O-])c1cc2c(cc1/C=N/NS(=O)(=O)c1ccc(Br)cc1)OCO2 |  | active: 11.2 µM
9 | Cc1cccc(-n2ncc(C(=O)N3CCC(C)CC3)c2C2CCN(C(=O)OC(C)(C)C)CC2)c1 | inactive: -23.8% | 
10 | Cc1cccc(-c2nnc(SCc3cc(=O)[nH]c4ccccc34)n2C)c1 |  | inconclusive: 89.1 µM [inhibitor, single point]
11 | CCN(CC)CCNc1nc(SC)nc2sc3c(c12)CCN(C)C3 |  | inconclusive: 50.1 µM [inhibitor, partial curve, poor fit]
12 | CCn1cc(C(=O)NCCC(C)C)c(=O)c2cc(F)c(N3CCN(C)CC3)cc21 | inactive: -31.5% [at 102 µM] | 
13 | C[C@@H]1CCC(=O)N(CC[C@H](Oc2ccccc2)c2ccccc2)CC1 |  | inconclusive: 89.1 µM [inhibitor, single point]
14 | COc1ccc(Oc2ncc3nc(-c4cccs4)c(=O)n(CCC#N)c3n2)cc1 | inactive: 1.03% [at 0.501 µM] | 
15 | CC(C)CC(=O)NC(=S)N1CCN(c2ccc([N+](=O)[O-])cc2Cl)CC1 |  | inconclusive: 31.6 µM [inhibitor, single point]
16 | COc1ccc(N2C(=O)C3C4C=CC(c5ccccc5)(C3C2=O)C2C(=O)N(c3ccc(OC)cc3)C(=O)C42)cc1 (stereo not given) |  | inconclusive: 44.7 µM [inhibitor, partial curve, poor fit]
17 | Cc1ccc(Nc2nc(COC(=O)C3CC3)cs2)cc1 |  | inconclusive: 12.6 µM [inhibitor, partial curve]
18 | CCOC(=O)c1c(S(=O)(=O)NCC(=O)N2CCN(c3ccccc3OC)CC2)c(C)n(C)c1C | inactive: 0.337% | 
19 | CCCN=C1N/C(=C\c2ccco2)C(=O)N1c1ccccc1 |  | inconclusive: 31.6 µM [inhibitor, single point]
20 | CN(CC(=O)Nc1nc2ccc(F)cc2s1)S(=O)(=O)c1ccc(Cl)cc1 |  | inconclusive: 28.2 µM [inhibitor, single point]
21 | COC(=O)CNC(c1ccccc1)c1cc(Br)ccc1NC(=O)CCN1CCOCC1 (stereo not given) |  | active: 3.16 µM
22 | O=C1CN=C(Nc2ccccc2)N1Cc1cccs1 |  | active: 79.4 µM
23 | CCN(CC)C(=O)CSC1=C(C#N)C(c2cccs2)C=C(C)N1 (stereo not given) |  | active: 10 µM

Row | SMILES | activity, negative = inhibition | Potency
24 | CCOC(=O)/C(C#N)=C(\N)C(C)C(=O)Nc1ccccn1 (stereo not given) |  | inconclusive: 89.1 µM [inhibitor, single point]
25 | Cc1cc(C)c2[nH]c(=O)c(C(c3nnnn3CC3CCCO3)N3CCC(C)CC3)cc2c1 (stereo not given) |  | inconclusive: 2.82 µM [inhibitor, partial curve, poor fit]
26 | COc1ccc(OC)c(CNCCNC(=O)c2ccco2)c1 |  | inconclusive: 7.94 µM [inhibitor, partial curve, poor fit]
27 | O=S(=O)(Nc1ncccn1)c1ccc(NS(=O)(=O)c2cccc(Cl)c2Cl)cc1 |  | inconclusive: 89.1 µM [inhibitor, single point]
28 | CC1CCc2nc3ncn(CC(=O)Nc4cccc(C#N)c4)c(=O)c3cc2C1 (stereo not given) | inactive: 9.83% | 
29 | CC(NC(=O)Nc1ccc(Br)cc1)C(C)(C)C (stereo not given) | inactive: 38.4% [at 102 µM] | 
30 | COc1cccc(NC(=O)c2cn(C3CCCCC3)c(=O)c3c2c2ccccc2n3C)c1 | inactive: -7.2% | 
31 | O=c1c(-c2cccs2)nc2cncnc2n1Cc1ccccc1 | inactive: 3.89% [at 0.501 µM] | 
32 | COC(=O)c1ccc(Cn2c(SCc3cccc(C)c3)nc3ccncc32)cc1 |  | inconclusive: 4.47 µM [inhibitor, partial curve, poor fit]
33 | COc1cc2cc(CN(CCN3CCCC3)C(=O)Nc3ccccc3Cl)c(=O)[nH]c2cc1OC |  | active: 50.1 µM
34 | Cc1cccnc1N(C(=O)Nc1cccc(Cl)c1)C1=NCC(C)(C)S1 |  | inconclusive: 89.1 µM [inhibitor, single point]
35 | COC(=O)c1ccc(C2C(C(=O)c3ccco3)=C(O)C(=O)N2c2cc(C)on2)cc1 (stereo not given) |  | inconclusive: 89.1 µM [inhibitor, single point]
36 | COc1cc(Cl)c(C)cc1NC(=O)CN1c2ccccc2S(=O)(=O)c2ccccc21 | inactive: 0.986% | 
37 | CCSc1ccccc1C(=O)Nc1cc(C)on1 | inconclusive: -73.8% [inhibitor] | 
38 | COc1ccc(CCNC(=O)CCc2cn(C)c3ccccc23)c(OC)c1 |  | inconclusive: 89.1 µM [inhibitor, single point]
39 | COC(=O)c1sc2nc(-c3ccccc3)c3c(c2c1N)CCCC3 | inactive: 160% | 
40 | O=C(CCCCCN1C(=O)CCC1=O)NCc1ccccc1 |  | inconclusive: 44.7 µM [inhibitor, partial curve, poor fit]
41 | COc1cc(OC)cc(C(=O)NNC(=S)NCc2ccco2)c1 | inactive: 47.8% [at 12.7 µM] | 
42 | CSc1nnc(-c2ccc(S(=O)(=O)N3CCOCC3)cc2)n1C |  | active: 22.4 µM
43 | CCC(C(=O)Nc1ccc(S(=O)(=O)N(C)C2CCN(C)CC2)cc1)c1ccccc1 (stereo not given) |  | inconclusive: 5.62 µM [inhibitor, single point]
44 | Cc1ccc(C(=O)CC2(O)C(=O)N(C)c3ccccc32)s1 (stereo not given) |  | active: 44.7 µM
45 | CCOC(=O)C1(CC2CCCCO2)CCN(Cc2cc3ccccc3[nH]2)CC1 (stereo not given) |  | inconclusive: 25.1 µM [inhibitor, partial curve]
